# The list shows a part of the results.
# How the values were obtained:
# Experiment in all cases: glycan array binding signal (z-score within array); higher = stronger binding
# Conditions in all cases: glycan notation: IUPAC condensed, linker removed
# [1] = target: Fuc(a1-2)Gal
# How it was run: (§1)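 The binding signal is a Z-score computed within each array. Data were drawn from 3228 arrays in the Consortium for Functional Glycomics database, restricted to those with a known protein sequence. Scores were averaged over arrays of the same protein sequence at different concentrations or buffers, and over linkers, and negative values can be taken as non-binding.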
# [2] = target: Fuc(a1-2)Gal(b1-3)GalNAc
# How it was run: as §1
# [3] = target: Fuc(a1-2)Gal(b1-3)GalNAc(a1-3)[Fuc(a1-2)]Gal(b1-4)Glc
# How it was run: as §1
# [4] = target: Fuc(a1-2)Gal(b1-3)GalNAc(a1-3)[Fuc(a1-2)]Gal(b1-4)GlcNAc
# How it was run: as §1
# [5] = target: Fuc(a1-2)Gal(b1-3)GalNAc(b1-3)Gal
# How it was run: as §1
# [6] = target: Fuc(a1-2)Gal(b1-3)GalNAc(b1-3)Gal(a1-4)Gal(b1-4)Glc
# How it was run: as §1
# [7] = target: Fuc(a1-2)Gal(b1-3)GalNAc(b1-4)[Neu5Ac(a2-3)]Gal(b1-4)Glc
# How it was run: as §1
# [8] = target: Fuc(a1-2)Gal(b1-3)GlcNAc
# How it was run: as §1
# [9] = target: Fuc(a1-2)Gal(b1-3)GlcNAc(b1-2)Man(a1-3)[Fuc(a1-2)Gal(b1-3)GlcNAc(b1-2)Man(a1-6)]Man(b1-4)GlcNAc(b1-4)GlcNAc
# How it was run: as §1
# [10] = target: Fuc(a1-2)Gal(b1-3)GlcNAc(b1-2)Man(a1-3)[Fuc(a1-2)Gal(b1-3)GlcNAc(b1-2)Man(a1-6)]Man(b1-4)GlcNAc(b1-4)[Fuc(a1-6)]GlcNAc
# How it was run: as §1
# [11] = target: Fuc(a1-2)Gal(b1-3)GlcNAc(b1-3)Gal(b1-4)Glc
# How it was run: as §1
# [12] = target: Fuc(a1-2)Gal(b1-3)GlcNAc(b1-3)GalNAc
# How it was run: as §1
# [13] = target: Fuc(a1-2)Gal(b1-3)GlcNAc(b1-3)[Fuc(a1-2)Gal(b1-3)GlcNAc(b1-6)]GalNAc
# How it was run: as §1
# [14] = target: Fuc(a1-2)Gal(b1-3)GlcNAc(b1-3)[Gal(b1-4)GlcNAc(b1-6)]Gal(b1-4)Glc
# How it was run: as §1
# [15] = target: Fuc(a1-2)Gal(b1-3)GlcNAc(b1-3)[Neu5Ac(a2-6)Gal(b1-4)GlcNAc(b1-6)]Gal(b1-4)Glc
# How it was run: as §1
# [16] = target: Fuc(a1-2)Gal(b1-3)GlcNAc6S
# How it was run: as §1
# [17] = target: Fuc(a1-2)Gal(b1-3)[Fuc(a1-4)]GlcNAc
# How it was run: as §1
# [18] = target: Fuc(a1-2)Gal(b1-3)[Fuc(a1-4)]GlcNAc(b1-2)Man(a1-3)[Fuc(a1-2)Gal(b1-3)[Fuc(a1-4)]GlcNAc(b1-2)Man(a1-3)]Man(b1-4)GlcNAc(b1-4)GlcNAc
# How it was run: as §1
# [19] = target: Fuc(a1-2)Gal(b1-3)[Fuc(a1-4)]GlcNAc(b1-2)Man(a1-3)[Fuc(a1-2)Gal(b1-3)[Fuc(a1-4)]GlcNAc(b1-2)Man(a1-6)]Man(b1-4)GlcNAc(b1-4)[Fuc(a1-6)]GlcNAc(b1-4)[Fuc(a1-6)]GlcNAc
# How it was run: as §1
# [20] = target: Fuc(a1-2)Gal(b1-3)[Fuc(a1-4)]GlcNAc(b1-3)[Fuc(a1-3)[Gal(b1-4)]GlcNAc(b1-6)]Gal(b1-4)Glc
# How it was run: as §1
# [21] = target: Fuc(a1-2)Gal(b1-3)[Fuc(a1-4)]GlcNAc(b1-3)[Gal(b1-4)GlcNAc(b1-6)]Gal(b1-4)Glc
# How it was run: as §1
# [22] = target: Fuc(a1-2)Gal(b1-4)Fuc(a1-3)]GlcNAc(b1-2)Man(a1-3)[Fuc(a1-2)Gal(b1-4)[Fuc(a1-3)]GlcNAc(b1-2)Man(a1-6)]Man(b1-4)GlcNAc(b1-4)GlcNAc
# How it was run: as §1
# [23] = target: Fuc(a1-2)Gal(b1-4)Glc
# How it was run: as §1
# [24] = target: Fuc(a1-2)Gal(b1-4)Glc6S
# How it was run: as §1
# [25] = target: Fuc(a1-2)Gal(b1-4)GlcNAc
# How it was run: as §1
# [26] = target: Fuc(a1-2)Gal(b1-4)GlcNAc(b1-2)Man
# How it was run: as §1
# [27] = target: Fuc(a1-2)Gal(b1-4)GlcNAc(b1-2)Man(a1-3)[Fuc(a1-2)Gal(b1-4)GlcNAc(b1-2)Man(a1-6)]Man(b1-4)GlcNAc(b1-4)GlcNAc
# How it was run: as §1
# [28] = target: Fuc(a1-2)Gal(b1-4)GlcNAc(b1-2)Man(a1-3)[Fuc(a1-2)Gal(b1-4)GlcNAc(b1-2)Man(a1-6)]Man(b1-4)GlcNAc(b1-4)[Fuc(a1-6)]GlcNAc
# How it was run: as §1
# [29] = target: Fuc(a1-2)Gal(b1-4)GlcNAc(b1-2)[Fuc(a1-2)Gal(b1-4)GlcNAc(b1-4)]Man(a1-3)[Fuc(a1-2)Gal(b1-4)GlcNAc(b1-2)Man(a1-6)]Man(b1-4)GlcNAc(b1-4)GlcNAc
# How it was run: as §1
# [30] = target: Fuc(a1-2)Gal(b1-4)GlcNAc(b1-3)Gal(b1-4)GlcNAc
# How it was run: as §1
# [31] = target: Fuc(a1-2)Gal(b1-4)GlcNAc(b1-3)Gal(b1-4)GlcNAc(b1-2)Man(a1-3)[Fuc(a1-2)Gal(b1-4)GlcNAc(b1-3)Gal(b1-4)GlcNAc(b1-2)Man(a1-6)]Man(b1-4)GlcNAc(b1-4)GlcNAc
# How it was run: as §1
# [32] = target: Fuc(a1-2)Gal(b1-4)GlcNAc(b1-3)Gal(b1-4)GlcNAc(b1-3)Gal(b1-4)GlcNAc
# How it was run: as §1
# [33] = target: Fuc(a1-2)Gal(b1-4)GlcNAc(b1-3)GalNAc
# How it was run: as §1
# [34] = target: Fuc(a1-2)Gal(b1-4)GlcNAc(b1-3)[Fuc(a1-2)Gal(b1-4)GlcNAc(b1-6)]GalNAc
# How it was run: as §1
# [35] = target: Fuc(a1-2)Gal(b1-4)GlcNAc(b1-3)[Fuc(a1-3)[Gal(b1-4)]GlcNAc(b1-6)]Gal(b1-4)Glc
# How it was run: as §1
# [36] = target: Fuc(a1-2)Gal(b1-4)GlcNAc(b1-6)GalNAc
# How it was run: as §1
# [37] = target: Fuc(a1-2)Gal(b1-4)GlcNAc6S
# How it was run: as §1
binder,measurement,setting,value
"CFEM-PPl (Pichia pastoris), F2QPV1 (protein) AVATPPACLLACAAEVVKESSDCDALNNIQCICENEGSAIHACLESTCPDGLSSTALQSFEDVCESVGTEANLDE",glycan array binding signal (z-score),[1],-0.148
same,glycan array binding signal (z-score),[2],-0.217
same,glycan array binding signal (z-score),[3],0.025
same,glycan array binding signal (z-score),[4],-0.119
same,glycan array binding signal (z-score),[5],0.145
same,glycan array binding signal (z-score),[6],-0.182
same,glycan array binding signal (z-score),[7],0.099
same,glycan array binding signal (z-score),[8],-0.22
same,glycan array binding signal (z-score),[9],-0.335
same,glycan array binding signal (z-score),[10],-0.278
same,glycan array binding signal (z-score),[11],-0.261
same,glycan array binding signal (z-score),[12],-0.302
same,glycan array binding signal (z-score),[13],-0.036
same,glycan array binding signal (z-score),[14],-0.115
same,glycan array binding signal (z-score),[15],-0.199
same,glycan array binding signal (z-score),[16],0.053
same,glycan array binding signal (z-score),[17],-0.299
same,glycan array binding signal (z-score),[18],0.009
same,glycan array binding signal (z-score),[19],-0.041
same,glycan array binding signal (z-score),[20],-0.205
same,glycan array binding signal (z-score),[21],-0.202
same,glycan array binding signal (z-score),[22],0.14
same,glycan array binding signal (z-score),[23],-0.216
same,glycan array binding signal (z-score),[24],-0.328
same,glycan array binding signal (z-score),[25],-0.297
same,glycan array binding signal (z-score),[26],-0.349
same,glycan array binding signal (z-score),[27],-0.342
same,glycan array binding signal (z-score),[28],-0.237
same,glycan array binding signal (z-score),[29],-0.101
same,glycan array binding signal (z-score),[30],-0.339
same,glycan array binding signal (z-score),[31],-0.136
same,glycan array binding signal (z-score),[32],-0.302
same,glycan array binding signal (z-score),[33],0.514
same,glycan array binding signal (z-score),[34],-0.132
same,glycan array binding signal (z-score),[35],-0.319
same,glycan array binding signal (z-score),[36],-0.237
same,glycan array binding signal (z-score),[37],-0.251

# From the supplement of paper PMC8728848
